Several values for one entry are separate records, joined by “and”; a condition that tells them apart may be missing. Equal values may be shown once. Hit rate of the full screen: of about 390,000 compounds, about 2,200 (0.56%) were called active. The shares of active, inactive and inconclusive entries below differ from those in the screen. Calls come from the whole dose curve; as a rule, active = well fitted inhibition curve with a large enough effect; inconclusive = small, poorly fitted or top-dose-only effect; inactive = no such curve, though single readings can be large or run the other way. Potencies beside an inconclusive call are fits to weak or partial responses and may not hold up.
biological target: Chromobox protein homolog 1 (Homo sapiens) (UniProt P83916); assay: HTS for Inhibitors of HP1-beta Chromodomain Interactions with Methylated Histone Tails; settings: AlphaScreen HP1-beta / biotin-H3K9me3 peptide binding; series mostly up to 114 µM; note: nearly all actives have a fitted effect of over 70% in size
Procedure, shortened: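 Compound inhibition of the preformed complex between 50 nM HP1-beta and 50 nM biotinylated H3K9me3 peptide was read by AlphaScreen. Buffer was PBS pH 7.4 with 0.01% Tween-20. Incubations ran 30 min at room temperature, with 10 ug/mL donor/acceptor beads.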
Potency is the fitted concentration of half-maximal effect; tags give direction and shape of the fitted curve.

UniProt P83916, sequence (P83916 whole entry, looked up): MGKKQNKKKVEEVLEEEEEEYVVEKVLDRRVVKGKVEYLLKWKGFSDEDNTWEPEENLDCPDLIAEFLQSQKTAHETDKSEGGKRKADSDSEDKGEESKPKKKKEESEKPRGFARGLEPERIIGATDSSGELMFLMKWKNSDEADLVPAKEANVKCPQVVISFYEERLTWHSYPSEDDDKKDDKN

| SMILES | Potency |
| --- | --- |
| Cc1ccc(OCC(=O)N(C)CC(=O)NCc2ccco2)c(Br)c1 | inconclusive: 56.2 µM [inhibitor, single point] |
| O=C1c2ccccc2C(=O)c2c(NCc3cccnc3)cccc21 | inconclusive: 17.8 µM [inhibitor, partial curve, poor fit] |
| COc1ccc(C=NNC(=S)NC23CC4CC(CC(C4)C2)C3)cc1OC | inconclusive: 31.6 µM [inhibitor, partial curve] |
| O=C1/C(=C\c2cc(Br)cc(Br)c2O)SC(=S)N1Cc1ccccc1 | active: 31.6 µM |
| COCCNC(=S)Nc1ccc([N+](=O)[O-])cc1C | inactive |
| Cc1ccc(C(=O)CSc2nnc(-c3ccco3)n2Cc2ccccc2)cc1 | inactive |
| Cc1cc(/C=N/n2cnnc2)c(C)n1-c1ccc(OCc2ccccc2F)cc1 | inconclusive: 39.8 µM [inhibitor, partial curve] |
| C/C(=N\NC(=O)c1cccc(S(=O)(=O)Nc2ccccc2Cl)c1)c1ccc(-n2ccnc2)cc1 | inactive |
| c1ccc(-c2nn3c(Cn4cnc5ccccc54)nnc3s2)cc1 | inconclusive: 17.8 µM [inhibitor, full curve] |
| CCOC(=O)C1CCCN(Cc2c(F)cccc2Cl)C1 (configuration not stated) | inconclusive: 89.1 µM [inhibitor, single point] |
| CN1CCCN(C2C3CC4CC(C3)CC2C4)CC1 (configuration not stated) | inconclusive: 20 µM [inhibitor, full curve] |
| COc1ccc(CN2CCN(c3ccccn3)CC2)c(OC)c1C | inconclusive: 17.8 µM [inhibitor, full curve] and inconclusive: 14.1 µM [inhibitor, full curve, poor fit] |
| Cc1ccnc(NC(c2ccsc2)c2ccc3ccc(C)nc3c2O)c1 (configuration not stated) | inconclusive: 25.1 µM [inhibitor, partial curve] |
| CCn1nnc2cc(C(=O)Nc3ccc(OC)cc3)ccc21 | inactive |
| COc1ccc(/C=N/NC(=O)CN2CCCCCCC2)c(C)c1C | inconclusive: 70.8 µM [inhibitor, partial curve] |
| O=C(NCCc1ccccc1)c1nn(-c2ccccc2Cl)nc1CO | inactive |
| CCN1CCCC1CNC(=O)c1cc(N)ccc1OC (configuration not stated) | inconclusive: 15.8 µM [inhibitor, full curve, poor fit] |
| NS(=O)(=O)c1ccc(NC(=O)c2csnn2)cc1 | inconclusive: 44.7 µM [inhibitor, partial curve] |
| COC(=O)c1ccc(C2Nc3cccc4cccc(c34)N2)cc1 | active: 44.7 µM |
| Cc1ccc(NC(=O)c2ccc(Nc3c([N+](=O)[O-])cc([N+](=O)[O-])cc3[N+](=O)[O-])cc2)cc1 | inconclusive: 20 µM [inhibitor, full curve] |
| Cc1ccc(NC(=O)CNCCCN2CCOCC2)cc1S(=O)(=O)N1CCCCC1 | inconclusive: 15.8 µM [inhibitor, full curve] |
| Cc1cccc(C2c3c(n(C)c(=O)n(C)c3=O)N=C3c4ccccc4C(=O)C32)c1 (configuration not stated) | inconclusive: 70.8 µM [inhibitor, partial curve] |
| COc1ccc(N2CC(NC(=O)C(=O)c3c(C)[nH]c4ccccc34)CC2=O)cc1 (configuration not stated) | inactive |
| O=C1CCCC2=C1C(c1ccc(Cl)cc1)n1c(s/c(=C\c3ccc4ccncc4c3)c1=O)=N2 (configuration not stated) | inconclusive: 31.6 µM [inhibitor, single point] |

| SMILES | Potency |
| --- | --- |
| c1cncc(-c2nc(NCc3ccc4c(c3)OCO4)c3ccccc3n2)c1 | inactive |
| Cc1ccc(OCCN2CCCC2)cc1 | inconclusive: 17.8 µM [inhibitor, full curve] |
| CC(C)OCCCNC(=S)Nc1ccc(S(N)(=O)=O)cc1 | active: 31.6 µM |
| COc1ccc(C(=O)c2coc3c2C(=O)C(=O)c2ccccc2-3)cc1 | inconclusive: 56.2 µM [inhibitor, single point] |
| Cc1c(Cl)cccc1Nc1n[nH]c(=S)s1 | active: 50.1 µM |
| CCOc1ccc(NC(=S)NNc2ccnc3cc(Cl)ccc23)cc1 | active: 11.2 µM |
| CCOc1ccc(NC(=O)CSc2nnc(C)n2CC)cc1 | inactive |
| O=C(Nc1c(C(=O)O)[nH]c2ccc(F)cc12)c1cccc(C(F)(F)F)c1 | inconclusive: 70.8 µM [inhibitor, single point] |
| CCc1cccc(Nc2c([N+](=O)[O-])cc(C(=O)N3CC(=O)Nc4ccccc43)cc2[N+](=O)[O-])c1 | inconclusive: 15.8 µM [inhibitor, full curve] |
| CN(C)CCCNCCCNC(=O)c1ccncc1 | inactive |
| CC(C)c1cc(C(=O)N2CCCC(CCC(=O)N3CCN(c4ccccn4)CC3)C2)no1 (configuration not stated) | inactive |
| C=CCNCCOCCSc1ccc(Cl)cc1 | inconclusive: 56.2 µM [inhibitor, partial curve, poor fit] |
| Cn1cccc1/C=N/n1c(-c2ccc(C(C)(C)C)cc2)n[nH]c1=S | active: 50.1 µM |
| O=C(c1cn(-c2ccccc2)nc1-c1cccc([N+](=O)[O-])c1)N1CCCCC1 | inactive |
| O=C(Cn1nc(-c2ccccc2)c2cnc3ccc(F)cc3c21)NC1CCCC1 | inactive |
| Cc1cccc(C(=O)NC(=S)N2CCN(C)CC2)c1 | inactive |
| O=C(c1ccccc1)N1N=C(c2ccccc2)CC1c1ccccc1O (configuration not stated) | inconclusive: 8.91 µM [inhibitor, full curve] |
| CN(C)C(CNC(C(=O)Nc1ccc([N+](=O)[O-])cc1Br)c1ccccc1)c1ccccc1 (configuration not stated) | inconclusive: 31.6 µM [inhibitor, partial curve] |
| CCCCCCSc1ccc([C@@H]2[C@@H]3C(=O)N(C)C(=O)[C@@H]3[C@]3(C(=O)OC)CCCCN23)cc1 | inactive |
| COc1ccc(/C=C(\NC(=O)c2ccc(C)cc2)C(=O)Nc2ccc(C(=O)O)cc2)cc1 | inactive |
| CC1CCN(C(=S)c2ccc(N(C)C)cc2)CC1 | inconclusive: 25.1 µM [inhibitor, partial curve] |
| CCOC(=O)C1=C(C)NC(C)=C(C(=O)OCC)C1C(=O)OCC(=O)NCc1ccco1 | inactive |
| COc1ccc(NC(=O)Cn2nc(-c3ccccc3)c3cnc4ccc(C)cc4c32)cc1 | inactive |

— PubChem BioAssay AID540317 (National Center for Advancing Translational Sciences (NCATS), 2011)
